# Laboratory results from the supplement of paper PMC8728848.
# This is one part of the list.
# Legend:
# Experiment in all cases: glycan array binding signal (z-score within array); higher = stronger binding
# Settings in all cases: glycan notation: IUPAC condensed, linker removed
# Fuc(a1-2)Gal = molecular target: Fuc(a1-2)Gal
# In short: (§1)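 Glycan array data were curated from 3228 arrays in the Consortium for Functional Glycomics database and kept only where the protein sequence was available. Glycan names were converted to IUPAC-condensed notation, and columns mapping to the same glycan were averaged. The binding signal is a within-array Z-score, averaged across arrays of the same protein sequence at different concentrations or buffers and across linkers. Negative Z-scores can be read as non-binding.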
# Fuc(a1-2)Gal(b1-3)GalNAc = molecular target: Fuc(a1-2)Gal(b1-3)GalNAc
# In short: as §1
# [1] = molecular target: Fuc(a1-2)Gal(b1-3)GalNAc(b1-3)Gal
# In short: as §1
# [2] = molecular target: Fuc(a1-2)Gal(b1-3)GalNAc(b1-3)Gal(a1-4)Gal(b1-4)Glc
# In short: as §1
# [3] = molecular target: Fuc(a1-2)Gal(b1-3)GalNAc(b1-4)[Neu5Ac(a2-3)]Gal(b1-4)Glc
# In short: as §1
# Fuc(a1-2)Gal(b1-3)GlcNAc = molecular target: Fuc(a1-2)Gal(b1-3)GlcNAc
# In short: as §1
# [4] = molecular target: Fuc(a1-2)Gal(b1-3)[Fuc(a1-4)]GlcNAc
# In short: as §1
# Fuc(a1-2)Gal(b1-4)Glc = molecular target: Fuc(a1-2)Gal(b1-4)Glc
# In short: as §1
# Fuc(a1-2)Gal(b1-4)GlcNAc = molecular target: Fuc(a1-2)Gal(b1-4)GlcNAc
# In short: as §1
# [5] = molecular target: Fuc(a1-2)Gal(b1-4)GlcNAc(b1-3)Gal(b1-4)GlcNAc
# In short: as §1
# [6] = molecular target: Fuc(a1-2)Gal(b1-4)GlcNAc(b1-3)Gal(b1-4)GlcNAc(b1-3)Gal(b1-4)GlcNAc
# In short: as §1
# [7] = molecular target: Fuc(a1-2)Gal(b1-4)[Fuc(a1-3)]GlcNAc
# In short: as §1
# Fuc(a1-2)GlcNAc = molecular target: Fuc(a1-2)GlcNAc
# In short: as §1
# Fuc(a1-2)[Gal(a1-3)]Gal = molecular target: Fuc(a1-2)[Gal(a1-3)]Gal
# In short: as §1
# [8] = molecular target: Fuc(a1-2)[Gal(a1-3)]Gal(b1-4)GlcNAc
# In short: as §1
# [9] = molecular target: Fuc(a1-2)[Gal(a1-4)]Gal(b1-4)GlcNAc
# In short: as §1
# [10] = molecular target: Fuc(a1-2)[GalNAc(a1-3)]Gal
# In short: as §1
# [11] = molecular target: Fuc(a1-2)[GalNAc(a1-3)]Gal(b1-4)GlcNAc
# In short: as §1
# [12] = molecular target: Fuc(a1-2)[GalNAc(a1-4)]Gal(b1-4)GlcNAc
# In short: as §1
# [13] = molecular target: Fuc(a1-2)[GalNAc(b1-3)]Gal
# In short: as §1
# Fuc(a1-3)GlcNAc = molecular target: Fuc(a1-3)GlcNAc
# In short: as §1
# [14] = molecular target: Fuc(a1-3)[Gal(b1-4)]GlcNAc
# In short: as §1
# [15] = molecular target: Fuc(a1-3)[Gal(b1-4)]GlcNAc(b1-3)Gal(b1-4)[Fuc(a1-3)]GlcNAc
# In short: as §1
# [16] = molecular target: Fuc(a1-3)[Gal(b1-4)]GlcNAc(b1-3)Gal(b1-4)[Fuc(a1-3)]GlcNAc(b1-3)Gal(b1-4)[Fuc(a1-3)]GlcNAc
# In short: as §1
# [17] = molecular target: Fuc(a1-3)[Gal3S(b1-4)]GlcNAc
# In short: as §1
# Fuc(b1-3)GlcNAc = molecular target: Fuc(b1-3)GlcNAc
# In short: as §1
# Gal(a1-2)Gal = molecular target: Gal(a1-2)Gal
# In short: as §1
# Gal(a1-3)Gal = molecular target: Gal(a1-3)Gal
# In short: as §1
# Gal(a1-3)Gal(b1-4)Glc = molecular target: Gal(a1-3)Gal(b1-4)Glc
# In short: as §1
# Gal(a1-3)Gal(b1-4)GlcNAc = molecular target: Gal(a1-3)Gal(b1-4)GlcNAc
# In short: as §1
# [18] = molecular target: Gal(a1-3)Gal(b1-4)[Fuc(a1-3)]GlcNAc
# In short: as §1
# Gal(a1-3)GalNAc = molecular target: Gal(a1-3)GalNAc
# In short: as §1
# [19] = molecular target: Gal(a1-3)[Gal(a1-4)]Gal(b1-4)GlcNAc
# In short: as §1
# Gal(a1-4)Gal(b1-4)Glc = molecular target: Gal(a1-4)Gal(b1-4)Glc
# In short: as §1
# Gal(a1-4)Gal(b1-4)GlcNAc = molecular target: Gal(a1-4)Gal(b1-4)GlcNAc
# In short: as §1
# Gal(a1-4)GlcNAc = molecular target: Gal(a1-4)GlcNAc
# In short: as §1
# Gal(a1-6)Glc = molecular target: Gal(a1-6)Glc
# In short: as §1
# Gal(b1-2)Gal = molecular target: Gal(b1-2)Gal
# In short: as §1
# Gal(b1-3)Gal = molecular target: Gal(b1-3)Gal
# In short: as §1
# Gal(b1-3)GalNAc = molecular target: Gal(b1-3)GalNAc
# In short: as §1
# [20] = molecular target: Gal(b1-3)GalNAc(b1-4)Gal(b1-4)Glc
# In short: as §1
# [21] = molecular target: Gal(b1-3)GalNAc(b1-4)[Neu5Ac(a2-3)]Gal(b1-4)Glc
# In short: as §1
# Gal(b1-3)GlcNAc = molecular target: Gal(b1-3)GlcNAc
# In short: as §1
# [22] = molecular target: Gal(b1-3)GlcNAc(b1-3)Gal(b1-4)Glc
# In short: as §1
# [23] = molecular target: Gal(b1-3)[Fuc(a1-4)]GlcNAc
# In short: as §1
binder,measurement,setting,value
"Hip/Pap (Homo sapiens), Q06141 (protein) MLPPMALPSVSWMLLSCLMLLSQVQGEEPQRELPSARIRCPKGSKAYGSHCYALFLSPKSWTDADLACQKRPSGNLVSVLSGAEGSFVSSLVKSIGNSYSYVWIGLHDPTQGTEPNGEGWEWSSSDVMNYFAWERNPSTISSPGHCASLSRSTAFLRWKDYNCNVRLPYVCKFTD",glycan array binding signal (z-score),Fuc(a1-2)Gal,-0.178
same,glycan array binding signal (z-score),Fuc(a1-2)Gal(b1-3)GalNAc,-0.179
same,glycan array binding signal (z-score),[1],-0.155
same,glycan array binding signal (z-score),[2],-0.127
same,glycan array binding signal (z-score),[3],-0.177
same,glycan array binding signal (z-score),Fuc(a1-2)Gal(b1-3)GlcNAc,-0.119
same,glycan array binding signal (z-score),[4],-0.18
same,glycan array binding signal (z-score),Fuc(a1-2)Gal(b1-4)Glc,-0.166
same,glycan array binding signal (z-score),Fuc(a1-2)Gal(b1-4)GlcNAc,-0.186
same,glycan array binding signal (z-score),[5],-0.027
same,glycan array binding signal (z-score),[6],-0.194
same,glycan array binding signal (z-score),[7],-0.172
same,glycan array binding signal (z-score),Fuc(a1-2)GlcNAc,-0.128
same,glycan array binding signal (z-score),Fuc(a1-2)[Gal(a1-3)]Gal,-0.174
same,glycan array binding signal (z-score),[8],0.204
same,glycan array binding signal (z-score),[9],-0.195
same,glycan array binding signal (z-score),[10],-0.149
same,glycan array binding signal (z-score),[11],-0.163
same,glycan array binding signal (z-score),[12],-0.018
same,glycan array binding signal (z-score),[13],-0.121
same,glycan array binding signal (z-score),Fuc(a1-3)GlcNAc,-0.146
same,glycan array binding signal (z-score),[14],-0.181
same,glycan array binding signal (z-score),[15],-0.135
same,glycan array binding signal (z-score),[16],-0.149
same,glycan array binding signal (z-score),[17],-0.171
same,glycan array binding signal (z-score),Fuc(b1-3)GlcNAc,-0.18
same,glycan array binding signal (z-score),Gal(a1-2)Gal,-0.11
same,glycan array binding signal (z-score),Gal(a1-3)Gal,-0.187
same,glycan array binding signal (z-score),Gal(a1-3)Gal(b1-4)Glc,-0.176
same,glycan array binding signal (z-score),Gal(a1-3)Gal(b1-4)GlcNAc,-0.133
same,glycan array binding signal (z-score),[18],0.228
same,glycan array binding signal (z-score),Gal(a1-3)GalNAc,-0.16
same,glycan array binding signal (z-score),[19],-0.164
same,glycan array binding signal (z-score),Gal(a1-4)Gal(b1-4)Glc,0.012
same,glycan array binding signal (z-score),Gal(a1-4)Gal(b1-4)GlcNAc,-0.155
same,glycan array binding signal (z-score),Gal(a1-4)GlcNAc,-0.046
same,glycan array binding signal (z-score),Gal(a1-6)Glc,0.232
same,glycan array binding signal (z-score),Gal(b1-2)Gal,-0.156
same,glycan array binding signal (z-score),Gal(b1-3)Gal,-0.107
same,glycan array binding signal (z-score),Gal(b1-3)GalNAc,-0.147
same,glycan array binding signal (z-score),[20],-0.156
same,glycan array binding signal (z-score),[21],-0.185
same,glycan array binding signal (z-score),Gal(b1-3)GlcNAc,-0.137
same,glycan array binding signal (z-score),[22],-0.154
same,glycan array binding signal (z-score),[23],-0.168
